Assay results as given in the supplement of paper PMC5499739.
In all, about 16,000 sequences were measured (“Z-score”: median about -0.37, highest 2% from about 3.1 on). The list shows a part of the results.

test system: RBM10 RRM1-ZnF-RRM2 (GST-tagged construct); test: RNAcompete 7-mer binding Z-score; higher = stronger binding preference
Description: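 RNAcompete: 20 pmol GST-tagged RBM10 RNA-binding constructs were incubated with a designed RNA pool of about 241,000 sequences up to 41 nt (1.5 nmol) on glutathione beads for 30 min at 4 °C and washed. Bound RNAs were identified by microarray hybridisation. Each RNA 7-mer is scored by a one-sided Z-score of its enrichment, computed over probes that contain the 7-mer within longer pool sequences.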

Sequence	RNAcompete 7-mer binding Z-score
UGCCGGC	-0.581
ACUAGCA	-0.409
GCUAUAG	0.315
CGCGGGC	0.825
AAUAUUG	-0.202
UAGCGUC	-0.449
CUUGCCU	-0.985
GGUUGCG	1.41
UACUCAG	-0.526
GUCCAUA	-0.526
AGCUGAA	0.17
ACUCCUU	-0.883
CCAUUUA	-0.97
CGAAUCG	-0.522
ACAGUGG	1.62
CGCGCCG	-0.522
UCCUUUC	-0.712
AAAUCCC	-0.887
AAGAACG	0.257
CAAGCUG	-0.511
CAAUCCG	-0.511
CCAAUGA	-0.409
AUCUGGA	0.0204

Sequence	RNAcompete 7-mer binding Z-score
AAGAAGG	3.81
AGGGACU	1.09
UGGUAGA	1.89
UAAAAGU	-0.0743
ACUUCAC	-0.876
GGUUCGA	0.814
GUGUGUU	0.188
CCUUGAC	-0.908
GUUUACA	-0.413
UUAGUAG	0.363
GAGCGAU	0.658
CAAUAUG	0.0277
AUCAUAG	-0.103
AAGUUUG	-0.176
CGCGGUU	0.0495
CGUAAGC	-0.235
GGUCUAG	0.0604
CACCCAC	-0.504
GGCUCUU	-0.632
UUUGGAG	0.924
CAGUGCA	0.166
ACGAGCA	0.13
GUCCAUC	-0.548

Sequence	RNAcompete 7-mer binding Z-score
GGCGUCG	1.01
CACCCCA	-0.49
UUCGAUC	-0.781
GCGACAG	0.709
AAUGAUA	0.17
AGAGUAU	0.283
UACAGGA	1.72
UUGCAAC	-0.555
GGUGCAU	1.16
UAUGGAU	0.789
ACGCCAU	-0.799
CGCCACA	-0.85
CCCACUU	-0.868
UGUCAAG	-0.3
AUACGAU	-0.144
ACGAUAC	-0.413
GGGCUGC	1.14
UGGGGUU	2.78
CCCAGGG	0.348
CGGCCGU	-0.267
CAACAGU	-0.216
GCUUCGU	-0.661
AGUUGUC	-0.719

Sequence	RNAcompete 7-mer binding Z-score
CACUACU	-0.617
CGAUGGG	2.73
CAGGUAC	0.643
UGCGGCA	0.29
ACCUGUA	-0.741
UUGGUCA	-0.195
GGGCGCU	0.647
UAAACCG	-0.38
UACAGAA	-0.289
UUAUAGG	0.64
AUACAAC	-0.18
CACCUGU	-0.744
CUUGGUA	-0.154
UAAGUAC	-0.548
GACAGUG	0.989
GGAUGAC	1.43
UUACCAC	-0.351
CAGGGGG	2.58
UCAAACU	-0.737
CUGAUCU	-0.941
GUAACCU	-0.457
UGACUUU	-0.825
ACCGGUA	0.279

Sequence	RNAcompete 7-mer binding Z-score
GUGUGGC	1.61
CAACGUG	0.122
GUGUUAG	0.294
AACCUAG	-0.391
UUCCAAC	-0.737
UCUGCCG	-0.759
AAGAAAU	-0.213
CCGUACU	-0.781
GGCAGAC	0.574
GUAAUGC	0.108
ACGUCCC	-0.799
GUACCGG	0.72
GAUACAU	0.166
AGCUGAC	-0.533
CAGCGAC	0.122
UUAGUUC	-0.643
UUAGAUU	-0.446
CUUGGCC	-0.748
GCUCUUU	-0.828
CCACUAC	-0.683
CUGCGAG	-0.00512
UUCUCUU	-0.704
AUGCACU	-0.537

Sequence	RNAcompete 7-mer binding Z-score
CUAGACA	-0.621
AAAGUCC	-0.442
AGUUUUA	-0.515
AGUGGCG	2.58
AUCUACU	-0.806
CGUAAAG	-0.0743
CGACUCA	-0.766
UAGUGUC	-0.402
CCAGCUA	-0.719
UUCUACG	-0.73
ACUGACA	-0.42
AGCUCCC	-0.639
CUUCCUC	-0.85
GCUAUGC	-0.522
AGGCCGC	-0.759
AAUUUCG	-0.694
CCGCCAU	-0.883
CAACCUA	-0.657
UUUUACG	-0.763
GUGACAG	1.08
AGGGAUG	4.22
AAGGUUA	3.06
GUGGGGA	4.25

Sequence	RNAcompete 7-mer binding Z-score
AGGUUUC	0.184
GUAGAGU	1.32
UCAAUCG	-0.526
UAGUCAC	-0.53
UGAAUGA	0.0386
GCAUAGA	0.323
CCUGCUG	-0.799
AGUAGCU	-0.435
GCCAGGC	0.119
GAUACUG	-0.118
GCCAUAG	-0.195
CGAGCCA	-0.318
GCCGCCU	-0.748
ACAGAAU	-0.187
UGCGGUU	0.447
CUCAUUA	-0.938
AUGGCAC	0.468
AAAGCGG	1.53
ACCGCCG	-0.639
UAAGGGU	3.54
CUGCUUU	-0.945
UUGCAUA	-0.417
CAACUUU	-0.755

Sequence	RNAcompete 7-mer binding Z-score
GUCCCGC	-0.497
CCGUGUG	-0.151
GGCAGGA	2.85
UACAGCC	-0.646
CACCUUA	-0.825
GCCGCCA	-0.683
UGAUACU	-0.537
GUUGCAC	-0.136
AGGGCAA	2.35
CGUAGUU	-0.373
UACAUUA	-0.537
AUACCUC	-0.854
GUAGCCG	-0.151
AUAGCUU	-0.632
UUGUCAU	-0.704
GGGUACU	2.05
CUGUUGU	-0.759
UGGUUCA	0.326
GGAGUAC	1.49
GGAAAAU	1.15
CGCAGUA	-0.136
AUAACAC	-0.424
AAUUUCU	-0.69
